Assay results published in PMC12136788.
The other results are listed elsewhere or left out.

B1: chr8:27733518:27733645:-|3pUTR|ENSG00000147419|unk|FALSE|unique (ssRNA)
RNA: GGGAGUUCUACAGUCCGACGAUCGACCUUUUGAUUUUGAAGCAGACUAAAAUCUGACCAGACCACAAUGAAAAGUAUAAAAUUAGAAACUUAAAUUCCAAGCUAAAUUUCAGCUUUGACCCACCUAACUCCAGUGAAUAGGUGCAACAGAGGAUUGAGCAUCA
B2: chr3:152462637:152462738:+|3pUTR|ENSG00000152601|msi1|total|mutant (ssRNA)
RNA: GGGAGUUCUACAGUCCGACGAUCGAACAACAUUGUCUUUCUUUUCCCGCACAGAGUUAUGCAUUCAAAGAUGCAUACCCCGUCCGUUUCCUAUAUAUUCAUGCCAUCUUGAAAAGACAGACUAUGGUGUAACCAUGAUUCUAUCAACAGAGGAUUGAGCAUCA
B3: ENSG00000198589:be:win_2201|CDS|ENSG00000198589|bound_else_gene|NA|bound_elsewhere_windowed (ssRNA)
RNA: GGGAGUUCUACAGUCCGACGAUCGAAUCAGGGUACAAGCUCUUAAGGCAAUGGGUUAUUUUUUAAAACAUCUGGCCCCAAAGAGGAAAGCAGAAGUCAUGCUUGGACAUGGAUUGUUUUCAUUGCUAGCUGAAAGGCUCAUGCCAACAGAGGAUUGAGCAUCA
B4: chr5:56881662:56881777:+|CDS|ENSG00000095015|unk|FALSE|unique (ssRNA)
RNA: GGGAGUUCUACAGUCCGACGAUCGAUCUACUUGAGUUCUGCAAGAAUGGUUACUACAGUACCCCAUGUGUUUUCAAAACUGUUAGAAAUGCUGAGUGUUUCCAGUUCCACUCACUUCACCAGGAUGCGUCGCCGUUUGAUGGCCAACAGAGGAUUGAGCAUCA
B5: chr4:138171397:138171528:-|3pUTR|ENSG00000151012|msi1|FALSE|unique (ssRNA)
RNA: GGGAGUUCUACAGUCCGACGAUCAUUAUGGCAAAGAGGAGAGAAAGAAAUUUAUUUUACAUUGACAUUGCAUUGCUUCCCCUUAGAUACCAAUUUAGAUAACAAACACUCAUGCUUUAAUGGAUUAUACCCAGAGCACUUUGACAACAGAGGAUUGAGCAUCA
B6: chr22:46316300:46316401:+|CDS|ENSG00000075218|unk|total|mutant (ssRNA)
RNA: GGGAGUUCUACAGUCCGACGAUCGGCGGCCAGUGGCUGAACUCCAGUUGCGCUUGGUCAGAAUCUUCUCAAUUGAAUAAGACCCGAAGUAUCAGACGGCGAGAUUCCUGUCUAAAUUCCAAGACAAAGGUUAUGCCUACUCCUCAACAGAGGAUUGAGCAUCA

Each binder was assayed against MSI1 full-length (mouse, UniProt Q61474 1-362) (assay: nsRBNS (natural sequence RNA bind-n-seq); RBNS binding buffer (assumed for nsRBNS): 25 mM Tris pH 7.5, 150 mM KCl, 3 mM MgCl2, 0.01% Triton X-100, 500 ug/ml BSA, 20 U/ml SUPERase-In, 4 C; UNK is unkempt and MSI1 is Musashi-1; names of the RNAs are library labels; protein concentration not given here; high values mean tight binding).
Sequence of UniProt Q61474 (Q61474 whole entry): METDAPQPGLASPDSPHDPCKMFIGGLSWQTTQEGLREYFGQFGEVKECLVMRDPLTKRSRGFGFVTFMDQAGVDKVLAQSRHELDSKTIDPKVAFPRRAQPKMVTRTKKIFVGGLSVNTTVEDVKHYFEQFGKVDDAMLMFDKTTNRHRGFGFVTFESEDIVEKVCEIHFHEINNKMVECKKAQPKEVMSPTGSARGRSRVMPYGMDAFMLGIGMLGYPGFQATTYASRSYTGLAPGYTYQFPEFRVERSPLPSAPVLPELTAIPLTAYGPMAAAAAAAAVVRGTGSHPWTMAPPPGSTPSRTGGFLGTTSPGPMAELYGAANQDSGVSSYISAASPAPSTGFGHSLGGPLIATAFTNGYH

Binder | binding signal
B1 | 2.32 enrichment R
B2 | 0.374 enrichment R
B3 | 0.299 enrichment R
B4 | 0.44 enrichment R
B5 | 15.4 enrichment R
B6 | 0.406 enrichment R
